# Test results reported in the supplement of paper PMC8728848.
# The other results are listed elsewhere or left out.
# B1: SP16664D-bth-476-27-476 (Bacteroides thetaiotaomicron) (protein)
# chain: DDLEVGKNIDESAYSGIYENNAYLRDGKSNLVSKVVELHGETYATTVKMGLSKTPNTATSAKVKIDAAYLETYNKAHNTDFALYPQDLVTFANEGILTVNANTKSAEVEMTIRAGEGLQEDKTYAIPVAISDQSSDITIKDEDAKHCIYLVKDMRNAGDAYKGEGVMQGYLFFEVNDVNPLNTLSFQLENGKLLWDVVVLFAANINYDAEAGRPRVQCNPNVQYLLDNNETLLQPLRRRGVKVLLGLLGNHDITGLAQLSEQGAKDFAREVAQYCKAYNLDGVNYDDEYSNSPDLSNPSLTNPSTAAAARLCYETKQAMPDKLVTVFDWGQMYGVATVDGVDAKEWIDIVVANYGSAAYPIGQMTKKQCSGISMEFNLGGGGSLSASKAQSMIDGGYGWFMGFAPSPAKYGSVFSRLQGGGEVLYGSNVAAPTIFYKKNDPTPYKYPDDL
# Columns and labels:
# Test in all cases: glycan array binding signal (z-score within array); higher = stronger binding
# Settings in all cases: glycan notation: IUPAC condensed, linker removed
# [1] = target: Neu5Ac(a2-6)GlcNAc(b1-4)GlcNAc(b1-4)GlcNAc
# In short: (§1)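 Arrays were curated from the Consortium for Functional Glycomics database, 3228 in total, and kept only where the protein sequence was available. Binding is expressed as a within-array Z-score. This score was averaged across arrays of the same protein sequence at different concentrations or buffers and across linkers, and negative values can be read as non-binding.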
# Neu5Ac(a2-8)Neu5Ac = target: Neu5Ac(a2-8)Neu5Ac
# In short: as §1
# [2] = target: Neu5Ac(a2-8)Neu5Ac(a2-3)Gal(b1-3)GalNAc(b1-4)[Neu5Ac(a2-3)]Gal(b1-4)Glc
# In short: as §1
# [3] = target: Neu5Ac(a2-8)Neu5Ac(a2-3)Gal(b1-3)GalNAc(b1-4)[Neu5Ac(a2-8)Neu5Ac(a2-3)]Gal(b1-4)Glc
# In short: as §1
# [4] = target: Neu5Ac(a2-8)Neu5Ac(a2-3)Gal(b1-4)Glc
# In short: as §1
# [5] = target: Neu5Ac(a2-8)Neu5Ac(a2-3)Gal(b1-4)GlcNAc
# In short: as §1
# [6] = target: Neu5Ac(a2-8)Neu5Ac(a2-3)[Gal(b1-3)GalNAc(b1-4)]Gal(b1-4)Glc
# In short: as §1
# [7] = target: Neu5Ac(a2-8)Neu5Ac(a2-3)[GalNAc(b1-4)]Gal(b1-4)Glc
# In short: as §1
# [8] = target: Neu5Ac(a2-8)Neu5Ac(a2-8)Neu5Ac
# In short: as §1
# [9] = target: Neu5Ac(a2-8)Neu5Ac(a2-8)Neu5Ac(a2-3)Gal(b1-4)Glc
# In short: as §1
# [10] = target: Neu5Ac(a2-8)Neu5Ac(a2-8)Neu5Ac(a2-3)[Gal(b1-3)GalNAc(b1-4)]Gal(b1-4)Glc
# In short: as §1
# [11] = target: Neu5Ac(a2-8)Neu5Ac(a2-8)Neu5Ac(a2-3)[GalNAc(b1-4)]Gal(b1-4)Glc
# In short: as §1
# [12] = target: Neu5Ac(a2-8)Neu5Ac(a2-8)Neu5Ac(a2-8)Neu5Ac(a2-3)[GalNAc(b1-4)]Gal(b1-4)Glc
# In short: as §1
# [13] = target: Neu5Ac(a2-8)Neu5Gc(a2-3)Gal(b1-4)GlcNAc
# In short: as §1
# [14] = target: Neu5Ac(b2-6)Gal(b1-4)GlcNAc
# In short: as §1
# Neu5Ac(b2-6)GalNAc = target: Neu5Ac(b2-6)GalNAc
# In short: as §1
# [15] = target: Neu5Ac9Ac(a2-3)Gal(b1-3)GlcNAc
# In short: as §1
# [16] = target: Neu5Ac9Ac(a2-3)Gal(b1-4)GlcNAc
# In short: as §1
# [17] = target: Neu5Ac9Ac(a2-6)Gal(b1-4)GlcNAc
# In short: as §1
# [18] = target: Neu5Gc(a2-3)Gal(b1-3)GlcNAc
# In short: as §1
# [19] = target: Neu5Gc(a2-3)Gal(b1-3)[Fuc(a1-4)]GlcNAc
# In short: as §1
# Neu5Gc(a2-3)Gal(b1-4)Glc = target: Neu5Gc(a2-3)Gal(b1-4)Glc
# In short: as §1
# [20] = target: Neu5Gc(a2-3)Gal(b1-4)GlcNAc
# In short: as §1
# [21] = target: Neu5Gc(a2-3)Gal(b1-4)GlcNAc(b1-3)Gal(b1-4)GlcNAc(b1-2)Man(a1-3)[Neu5Gc(a2-3)Gal(b1-4)GlcNAc(b1-3)Gal(b1-4)GlcNAc(b1-2)Man(a1-6)]Man(b1-4)GlcNAc(b1-4)GlcNAc
# In short: as §1
# [22] = target: Neu5Gc(a2-3)Gal(b1-4)[Fuc(a1-3)]GlcNAc
# In short: as §1
# [23] = target: Neu5Gc(a2-6)Gal(b1-4)GlcNAc
# In short: as §1
# Neu5Gc(a2-6)GalNAc = target: Neu5Gc(a2-6)GalNAc
# In short: as §1
# [24] = target: Neu5Gc(a2-8)Neu5Ac(a2-3)Gal(b1-4)GlcNAc
# In short: as §1
# [25] = target: Neu5Gc(a2-8)Neu5Gc(a2-3)Gal(b1-4)GlcNAc
# In short: as §1
# [26] = target: Neu5Gc(a2-8)Neu5Gc(a2-3)Gal(b1-4)GlcNAc(b1-3)Gal(b1-4)GlcNAc
# In short: as §1
# [27] = target: Neu5Gc(a2-8)Neu5Gc(a2-6)Gal(b1-4)GlcNAc
# In short: as §1
# [28] = target: Neu5Gc(b2-6)Gal(b1-4)GlcNAc
# In short: as §1
binder,measurement,setting,value
B1,glycan array binding signal (z-score),[1],-0.029
same,glycan array binding signal (z-score),Neu5Ac(a2-8)Neu5Ac,-0.161
same,glycan array binding signal (z-score),[2],-0.237
same,glycan array binding signal (z-score),[3],0.139
same,glycan array binding signal (z-score),[4],-0.328
same,glycan array binding signal (z-score),[5],-0.238
same,glycan array binding signal (z-score),[6],-0.262
same,glycan array binding signal (z-score),[7],-0.158
same,glycan array binding signal (z-score),[8],-0.336
same,glycan array binding signal (z-score),[9],-0.14
same,glycan array binding signal (z-score),[10],-0.225
same,glycan array binding signal (z-score),[11],2.53
same,glycan array binding signal (z-score),[12],0.095
same,glycan array binding signal (z-score),[13],-0.346
same,glycan array binding signal (z-score),[14],-0.182
same,glycan array binding signal (z-score),Neu5Ac(b2-6)GalNAc,-0.24
same,glycan array binding signal (z-score),[15],-0.226
same,glycan array binding signal (z-score),[16],-0.052
same,glycan array binding signal (z-score),[17],-0.233
same,glycan array binding signal (z-score),[18],-0.232
same,glycan array binding signal (z-score),[19],-0.044
same,glycan array binding signal (z-score),Neu5Gc(a2-3)Gal(b1-4)Glc,-0.239
same,glycan array binding signal (z-score),[20],-0.227
same,glycan array binding signal (z-score),[21],-0.176
same,glycan array binding signal (z-score),[22],-0.243
same,glycan array binding signal (z-score),[23],-0.282
same,glycan array binding signal (z-score),Neu5Gc(a2-6)GalNAc,-0.127
same,glycan array binding signal (z-score),[24],-0.114
same,glycan array binding signal (z-score),[25],-0.222
same,glycan array binding signal (z-score),[26],-0.176
same,glycan array binding signal (z-score),[27],-0.109
same,glycan array binding signal (z-score),[28],-0.051
